In publication PMC4336329 (PLoS ONE, 2015):
In all, about 310,000 compounds went through this assay and about 14,000 (4.5%) showed an effect of 50% or more. The effect is printed as a negative number. The list shows a part of the results.

Target: human ether-à-go-go-related gene (hERG) potassium channel (human, UniProt Q12809)
Assay: primary screen, population patch clamp on CHO cells stably expressing hERG
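Note: peak tail current of the secondary pulse compared with the same well before compound.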

Chain of human ether-à-go-go-related gene (hERG) potassium channel (Q12809 whole entry, looked up): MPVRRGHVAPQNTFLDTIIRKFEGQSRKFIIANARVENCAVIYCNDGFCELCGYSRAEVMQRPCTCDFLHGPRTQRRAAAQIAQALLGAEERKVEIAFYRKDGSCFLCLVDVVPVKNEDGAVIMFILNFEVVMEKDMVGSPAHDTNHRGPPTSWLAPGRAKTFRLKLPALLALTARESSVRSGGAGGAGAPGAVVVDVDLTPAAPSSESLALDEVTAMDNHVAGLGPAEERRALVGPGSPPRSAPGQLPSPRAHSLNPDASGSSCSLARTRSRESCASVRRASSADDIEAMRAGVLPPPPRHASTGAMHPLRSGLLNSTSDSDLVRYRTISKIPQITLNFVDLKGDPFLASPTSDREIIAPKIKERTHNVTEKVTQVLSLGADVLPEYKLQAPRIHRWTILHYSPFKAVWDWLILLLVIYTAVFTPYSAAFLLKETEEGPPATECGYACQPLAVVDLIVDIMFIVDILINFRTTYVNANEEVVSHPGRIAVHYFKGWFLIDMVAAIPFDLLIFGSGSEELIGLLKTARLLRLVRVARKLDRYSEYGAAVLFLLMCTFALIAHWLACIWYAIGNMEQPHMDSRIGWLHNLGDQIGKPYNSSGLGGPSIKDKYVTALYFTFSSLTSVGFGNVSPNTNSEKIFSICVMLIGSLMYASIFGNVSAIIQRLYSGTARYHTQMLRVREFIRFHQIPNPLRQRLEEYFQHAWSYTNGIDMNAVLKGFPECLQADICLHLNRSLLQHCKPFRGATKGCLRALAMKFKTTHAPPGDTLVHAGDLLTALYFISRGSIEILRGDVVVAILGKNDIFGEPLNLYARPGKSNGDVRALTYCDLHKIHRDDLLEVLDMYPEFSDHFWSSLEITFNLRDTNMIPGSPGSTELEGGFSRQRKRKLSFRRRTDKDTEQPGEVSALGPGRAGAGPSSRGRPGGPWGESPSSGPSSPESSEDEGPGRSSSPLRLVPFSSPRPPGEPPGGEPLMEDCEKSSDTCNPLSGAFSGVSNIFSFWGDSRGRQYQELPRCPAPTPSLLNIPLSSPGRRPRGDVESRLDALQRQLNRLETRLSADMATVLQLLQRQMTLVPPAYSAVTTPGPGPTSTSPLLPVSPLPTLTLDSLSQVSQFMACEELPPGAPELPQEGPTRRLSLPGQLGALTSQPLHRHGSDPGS

In order of rising “hERG current change (%, negative = inhibition) at 10uM” value:
1. CCCCn1c(NCc2cccs2)nc2ccccc21  -55.9%
2. CCOC(=O)C1CCN(CC(O)COc2ccc(C(C)=O)cc2)CC1.Cl (centres unmarked)  -47.7%
3. CN(Cc1ccccc1)c1oc(COc2ccccc2F)nc1C#N  -32.7%
4. COC(=O)c1cc2ccsc2n1CC(=O)N1CCCc2ccccc21  -23.9%
5. CC(C)Cc1nnc(NC(=O)C2CC(=O)N(c3ccc4c(c3)OCCO4)C2)s1 (centres unmarked)  -22.5%
6. OCCC1CN(Cc2cccs2)CCN1Cc1ccccc1 (centres unmarked)  -20.9%
7. O=C(NCc1cccs1)C1CCN(c2nccs2)CC1  -16.5%
8. CSC1=C(C#N)C(c2ccncc2)C(C(=O)Nc2ccccc2)=C(C)N1 (centres unmarked)  -16.4%
9. CC(NC(=O)CN1CCCC1)C12CC3CC(CC(C3)C1)C2.Cl (centres unmarked)  -15.2%
10. Cc1ccc(S(=O)(=O)N2CCN(C(=O)Cn3nc(C)c([N+](=O)[O-])c3C)CC2)cc1  -13.7%
11. O=C1CCC(=O)N1OCCOc1ccc2c(c1)CCC2  -13.3%
12. CC(C)(C)n1cnc2cc(NCc3ccccc3O)ccc21  -10.1%
13. CN(C)c1nc(Oc2ccc(=O)n(C)n2)nc(N2CCOCC2)n1  -8.41%
14. O=C(c1noc2c1CCCC2)N1CCc2c([nH]c3ccccc23)C1c1ccccn1 (centres unmarked)  -7.65%
15. CCOC(=O)CCc1nn(C)c(=O)c2ccccc12  -6.68%
16. Cc1ccc2cccc(OCc3cccc([N+](=O)[O-])c3)c2n1  -4.71%
17. C/C(CC(=O)NC1CCCC1)=N\NC(=O)Cc1cccs1  -3.71%
18. O=C(CN1CCOCC1)Nc1cccc(C(F)(F)F)c1  -3%
19. C=CCNC(=O)N1CCCC(N2CCN(c3ccccc3OC)CC2)C1 (centres unmarked)  -1.16%
20. CC(Cc1cccs1)NC(=O)Nc1cccc(Cl)c1 (centres unmarked)  0.919%
21. O=C(NNC(=O)c1ccc(-c2ccccc2)cc1)c1ccccc1  2.5%
22. O=C(NC(=S)Nn1cnnc1)c1cccc(Br)c1  2.66%
23. CCCn1c(CN2CCCCC2C)nc2c1c(=O)n(C)c(=O)n2C (centres unmarked)  3.04%
24. COc1ccc(CNC(=S)Nc2ccc(OC)cc2)cc1  3.09%
25. CCN1C(=O)[C@H]2[C@@H](c3ccc(-c4ccc(C(C)=O)cc4)cc3)N[C@@](Cc3ccccc3)(C(=O)OC)[C@H]2C1=O.O=C(O)C(F)(F)F  3.52%
26. Cc1ccc(S(=O)(=O)N2CCC(C(=O)OCC(=O)N(CC(C)C)C3CCS(=O)(=O)C3)CC2)cc1C (centres unmarked)  4.81%
27. COc1cccc(N2CC(NS(=O)(=O)c3cccs3)CC2=O)c1 (centres unmarked)  4.83%
28. COc1cc(NC(=O)c2cc([N+](=O)[O-])ccc2NC(=O)CNC2CCCCC2)cc(OC)c1  5.17%
29. Cc1cc2ccccc2nc1Br  7.56%
30. CCOC(=O)c1cnc(-c2ccccc2)nc1Oc1ccccc1  7.83%
31. CC12CCC(c3c(C(=O)O)nn(-c4ccc(F)cc4)c31)C2(C)C (centres unmarked)  7.95%
32. O=C(N1CCOCC1)C1(S(=O)(=O)c2ccccc2)CC=CC1  9.58%
33. COc1ccccc1CC(=O)NCc1nn(-c2ccccc2)nc1C  9.76%
34. O=C(Oc1ccc[nH]c1=O)c1cccc(Cl)c1  10.3%
35. Cc1cc(C)c(Nc2cc(S(=O)(=O)[O-])c(N)c3c2C(=O)c2ccccc2C3=O)c(C)c1.[Na+]  12%
36. CCC(=O)Nc1ccc(/C=C(\C(C)=O)C(=O)c2ccccc2)cc1  12%
37. Cc1nnc(NC(=O)c2ccc(S(=O)(=O)N3CC(C)OC(C)C3)cc2)o1 (centres unmarked)  12.6%
38. CNS(=O)(=O)c1cccc(C(=O)OCC(=O)Nc2ccc(OC)cc2[N+](=O)[O-])c1  14.3%
39. COc1ccc2ccccc2c1/C=N\NC(=O)c1ccc(C)s1  14.8%
40. COc1ccc(OC)c(C2=NOC(C(=O)Nc3ccc4c(c3)OCCO4)C2)c1 (centres unmarked)  14.8%
41. O=C(CN1C(=O)C2C3C=CC(C3)C2C1=O)OCC(=O)c1ccc(Cl)c([N+](=O)[O-])c1 (centres unmarked)  15.7%
42. Cn1nc(C(F)(F)F)cc1-c1ccc(/C=C(\C#N)C(=O)c2cccc(C(F)(F)F)c2)s1  16.8%
43. COc1cc(COc2ccc3c(C)c(CCC(=O)O)c(=O)oc3c2)cc(OC)c1OC  17.5%
44. O=c1[nH]c2ccc(NS(=O)(=O)c3ccc([N+](=O)[O-])cc3)cc2[nH]1  32%
